Our source for the binding signal values is article PMC12136788.

Some of the results follow.

The chains are these.
B1: 21043593_21043713_273_3pUTR_ENSMUSG00000033382_ENSMUST00000025177|mouse|control|control (ssRNA)
RNA: GGGAGUUCUACAGUCCGACGAUCUAAUCACAUUAGCGACUAAUCCUUCUGCAGGCUGGCUGCCAGAAACAACAUCAUUCAAAAGCUUCCCAAUGGCUCCCGGCUGAGGUGGCUGGGUGACAAUGUUGCUUACUGCUAUCUUCACAACAGAGGAUUGAGCAUCA
B2: chr21:32491406:32491407:-_ENSG00000156299_ENST00000286827|hu_hu|FALSE|FALSE (ssRNA)
RNA: GGGAGUUCUACAGUCCGACGAUCCAUAGUAUUUUAAACCCUUCUUAGGAAGUGGACAUUGUGACAUGGGAAAAGAAAAAGCUAUAAACCUUUUUUUAAAAAAAAAAAAAAAAUUGAAAGUGCUAUAACUUGUUUUUCUUCUUACAACAGAGGAUUGAGCAUCA
B3: chr10:80642667:80642668:+_ENSMUSG00000034994_ENSMUST00000047864|mus_mus|FALSE|FALSE (ssRNA)
RNA: GGGAGUUCUACAGUCCGACGAUCCACUCUACCAAAGGCAUAGAAGCGGCCUUUGUCAGAGGUUGGCACCAUCUUGGAAAUGUACAUCAUAAGUGGGCCUUUGGGGUCGCAGCUCUUAAUACCCAUGGCGGCCUCAUCGUCGGGCAACAGAGGAUUGAGCAUCA
B4: chr19:5716489:5716490:-_ENSMUSG00000024937_ENSMUST00000075606|mus_hu|FALSE|FALSE (ssRNA)
RNA: GGGAGUUCUACAGUCCGACGAUCCACCAUGUCCGCGGGCUCCAGCAGCCGCGACACGCCCAGAGCCGCGAAGCCAUCGAAGGCCUGCUUGUUGUUCUGCUUGAUGUUGAGUGGGUCUAGCGAGGCAUAGUCAAUCUUGUCUGGCAACAGAGGAUUGAGCAUCA
B5: chr1:243329018:243329019:-_ENSG00000143702_ENST00000366542|hu_mus|FALSE|FALSE (ssRNA)
RNA: GGGAGUUCUACAGUCCGACGAUCAAACUUAGUAGGAGUCCACUGGGCCUGCUCCUUUUGCUCUUGCUGCUGCAUUUUAGCCAAUGUUUGUUUUACCAAAGAAGUUUCCUUUUCCGUCUCACUCUUCUCCUUGCUAGAUGAGCUCAACAGAGGAUUGAGCAUCA
B6: chr1:182620099:182620100:+_ENSMUSG00000058729_ENSMUST00000085803|mus_hu|motif|central (ssRNA)
RNA: GGGAGUUCUACAGUCCGACGAUCCAAAGGUUUCUUUUAUAUGUUAUGAUAAAUUAAAAUAUUUAUUAUUAUAAAAUGAUCGGCAGAACCAUGUCACAUUGCAAGUAUAUAUAACAUAUACUUGUAAAGUCCACAUUUCCCAUCCAACAGAGGAUUGAGCAUCA
B7: chr17:57762449:57762450:+_ENSG00000141367_ENST00000269122|hu_hu|motif|central (ssRNA)
RNA: GGGAGUUCUACAGUCCGACGAUCUUCAUGUUUUUCCAAACGCUGAGCAAGCGAGAUAUUGUCAAAGUUGUCAUAAGCAUCGGUUGAUGUUCGCAGAGCCUGAUAAUCUUCUUCUGUAAUAAAAAGAUUGUUCAAUGAUUCAUUCAACAGAGGAUUGAGCAUCA
B8: chr2:37325018:37325019:+_ENSMUSG00000035437_ENSMUST00000112920|perfect_dup|motif|central (ssRNA)
RNA: GGGAGUUCUACAGUCCGACGAUCAUUAUUUGUAGAUGGUGUCUCAUCUCCUUGCCUGGAAACCAAGACAAAAUCUUCACGGUUAAGAGUAGAUACUGAGUCUGAAGAGACACUGAUUUUUCCAACAGAAGCCUUGUCAUCCAUCAACAGAGGAUUGAGCAUCA
B9: chr17:65740002:65740003:+_ENSG00000130935_ENST00000581375|hu_hu|hu_hu_hu_mus_False|1_38 (ssRNA)
RNA: GGGAGUUCUACAGUCCGACGAUCAACAAAUCUUUCUUCCCUGGACGAACAGGAAGAUUCAUAUUAAAAAAAAUAUAUAUCCAUCAAGUUAGGUGUGUAAUAUCAGACUUUACUCCCAGCACUUUGGGAGGUGGAUCCUCUAUUCAACAGAGGAUUGAGCAUCA
B10: chr7:54825262:54825263:-_ENSG00000132432_ENST00000352861|hu_hu|hu_hu_hu_mus_False|1_1 (ssRNA)
RNA: GGGAGUUCUACAGUCCGACGAUCCUGCCGGCUGGGCUCCACAAACUGCAUUACCUGAUCCAUGUUUGUUGGAUGGCGGAUUGAGAGCGUAGAGACACGUAGCUCAGGAGAGAACCGAGCCCAACGGAACCGGAAGCGGAAUCCCAACAGAGGAUUGAGCAUCA
B11: chr14:22664367:22664368:+_ENSMUSG00000021771_ENSMUST00000022293|mus_mus|FALSE|FALSE (ssRNA)
RNA: GGGAGUUCUACAGUCCGACGAUCAGACAGUGUAAGCUUCACACCAGGCCUCAGAGUCUGAGUAUAGCCCACUCCAAUUAAACUAGAGUUGUUGACCUUUGCAGAGAUAGAAGCAGUAGGAUCCAACUGGUAUUUAGCUGCAAUCAACAGAGGAUUGAGCAUCA
B12: 36391053_36391173_8692_3pUTR_ENSG00000092847_ENST00000373204|human|control|control (ssRNA)
RNA: GGGAGUUCUACAGUCCGACGAUCAUACUGAUCUGUUGGUAUAUGCCAUGACCCUGAGAUGACAAAAAUGAAGAGAAUAUAGCUUCUGCUCCUAGGAGUUCAUAGGCUCUAAAGAAGACAAAUUAUGGAAAUAAAUAUAGUAUGCAACAGAGGAUUGAGCAUCA
B13: chr5:70837361:70837362:+_ENSG00000145734_ENST00000358731|hu_mus|FALSE|FALSE (ssRNA)
RNA: GGGAGUUCUACAGUCCGACGAUCAUGAUGCAUGCGAUGUACUAAUGACAGGUGAACAAACCUCCGGAUAGUCAUGGACAACUUUUUGAUUUACAUUAUCUGGGCUAAAAGGAGCAUGACUUUUAUCCUCUGAAUGAACAUCAGCAACAGAGGAUUGAGCAUCA
B14: chr1:109605425:109605426:-_ENSG00000197780_ENST00000461096|hu_hu|motif|central (ssRNA)
RNA: GGGAGUUCUACAGUCCGACGAUCUAGUCAAGGACACAUUUCCACAAUGAACAAGUACUUACAAAUAUGUUAAUAAAACACGGACCCAAAUGCUUACCCUGCCAUCAGCUUUUUAAACAAUGCCAUUCCUGCUACUGAAAGCAUCAACAGAGGAUUGAGCAUCA

The assay addresses T1, UNK ZnF1-3 (human, UniProt Q9C0B0 31-174).
T1 sequence: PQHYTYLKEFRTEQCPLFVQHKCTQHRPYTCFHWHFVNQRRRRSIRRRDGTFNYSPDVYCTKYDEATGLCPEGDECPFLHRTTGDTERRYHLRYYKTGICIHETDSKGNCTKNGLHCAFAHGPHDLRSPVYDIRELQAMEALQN
Briefly: nsRBNS (natural sequence RNA bind-n-seq); RBNS binding buffer (assumed for nsRBNS): 25 mM Tris pH 7.5, 150 mM KCl, 3 mM MgCl2, 0.01% Triton X-100, 500 ug/ml BSA, 20 U/ml SUPERase-In, 4 C; UNK is unkempt and MSI1 is Musashi-1; names of the RNAs are library labels; protein concentration not given here; high values mean tight binding.
In turn, B1 displayed a binding signal of 1.01 enrichment R.

The molecule B2 showed a binding signal of 1.83 enrichment R.

For the molecule B3, the binding signal worked out at 1.23 enrichment R.

Consider B4, for which the binding signal came to 0.638 enrichment R.

Regarding B5, the binding signal was 0.492 enrichment R.

In turn, B6 showed a binding signal of 1.94 enrichment R.

For B7, the binding signal was 0.806 enrichment R.

In turn, B8 showed a binding signal of 0.558 enrichment R.

The molecule B9 yielded a binding signal of 1.25 enrichment R.

Regarding B10, the binding signal is 1.3 enrichment R.

B11 came in with a binding signal of 1.14 enrichment R.

B12 yielded a binding signal of 1.94 enrichment R.

Turning to B13, the binding signal came out at 1.47 enrichment R.

B14 gave a binding signal of 1.83 enrichment R.
